Reference: patent US7507803B2, “Optimized multi-epitope constructs and uses thereof” (priority 2002, dated 2009)
Where two headings read alike, the source gives them in different places. Ends that are not written are not given here.

System: PBL from HLA-A1 or -A24 positive normal donors
Assay: In-vitro primary CTL induction assay
Details: for Net IFN-γ: adjusted for control irrelevant peptide; for +Wells/Total Tested: cultures with positive CTL response of total cultures tested; for Donors +/Total Tested: donors with positive CTL response of total donors tested
[1] = IFN-γ secretion with peptide/without peptide, positive cultures

Molecule | Net IFN-γ (positive cultures) | +Wells/Total Tested | Donors +/Total Tested | Avg. SI [1] | Avg. SI
CC(C)C[C@H](NC(=O)[C@H](C)NC(=O)[C@H](CO)NC(=O)[C@H](C)NC(=O)[C@@H](NC(=O)[C@H](CC(=O)O)NC(=O)[C@H](CC(C)C)NC(=O)[C@H](CC(C)C)NC(=O)[C@@H](N)CC(=O)O)[C@@H](C)O)C(=O)N[C@@H](Cc1ccc(O)cc1)C(=O)O [core 419] | 67 pg/well | 3/144 | 1/3 | – | –
CC[C@H](C)[C@H](NC(=O)[C@@H](NC(=O)[C@H](Cc1ccccc1)NC(=O)[C@H](CCCNC(=N)N)NC(=O)[C@H](CCCNC(=N)N)NC(=O)[C@H](CC(C)C)NC(=O)[C@H](CS)NC(=O)[C@H](CCSC)NC(=O)[C@H](Cc1c[nH]c2ccccc12)NC(=O)[C@@H](N)CCCNC(=N)N)[C@@H](C)CC)C(=O)O [env 236] | – | 0/96 | 0/2 | – | –
CSCC[C@H](NC(=O)[C@H](CCSC)NC(=O)[C@@H](N)Cc1c[nH]c2ccccc12)C(=O)N[C@@H](Cc1c[nH]c2ccccc12)C(=O)N[C@@H](Cc1ccc(O)cc1)C(=O)N[C@@H](Cc1c[nH]c2ccccc12)C(=O)NCC(=O)N1CCC[C@H]1C(=O)N[C@@H](CO)C(=O)N[C@@H](CC(C)C)C(=O)N[C@@H](Cc1ccc(O)cc1)C(=O)O [env 359] | 175 pg/well | 1/192 | 1/4 | – | –
C[C@H](N)C(=O)N[C@@H](CO)C(=O)N[C@@H](Cc1ccccc1)C(=O)N[C@@H](CS)C(=O)NCC(=O)N[C@@H](CO)C(=O)N1CCC[C@H]1C(=O)N[C@@H](Cc1ccc(O)cc1)C(=O)O [pol 166] | 60 pg/well | 3/192 | 2/4 | – | –
CC(C)C[C@H](NC(=O)[C@H](CC(N)=O)NC(=O)[C@@H]1CCCN1C(=O)[C@@H](NC(=O)[C@H](C)NC(=O)[C@H](Cc1ccccc1)NC(=O)[C@H](CCCCN)NC(=O)[C@@H]1CCCN1C(=O)[C@H](Cc1c[nH]c2ccccc12)NC(=O)[C@@H](N)CO)C(C)C)C(=O)O [pol 392] | – | 0/144 | 0/3 | – | –
CC(C)C[C@H](NC(=O)[C@H](CO)NC(=O)[C@@H](N)CC(C)C)C(=O)N[C@@H](CC(=O)O)C(=O)N[C@H](C(=O)N[C@@H](CO)C(=O)N[C@@H](C)C(=O)N[C@@H](C)C(=O)N[C@@H](Cc1ccccc1)C(=O)N[C@@H](Cc1ccc(O)cc1)C(=O)O)C(C)C [pol 415] | 56 pg/well | 1/192 | 1/4 | 57.0 | –
LTFGRETVLEY [core 137] | 100 pg/well | 3/144 | 3/3 | – | 27.3
LWFHISCLTF [core 101] | 248 pg/well | 2/96 | 1/2 | 2.8 | –
RFSWLSLLVPF [env 332] | 186 pg/well | 1/96 | 1/2 | 2.5 | –
